In all, about 2,300 sequences were measured (“median log2 fold change of GCK-ALFA target abundance (FLAG IP / Myc IP barcode read proportion)”: median about 0.095, lowest 2% from about -0.47 on). The list shows a part of the results.

B1: LC3A_3_1720 (protein)
chain: AEEIKEEIIKTLKEQGRSEETIEAAEKLANALIEKGYLNALKTLLELLKEMKDVSDEVLLEMLEDLLYIVENENLSEEELIKKIKEEAEVARKEEEIIEL
B2: LC3A_free_39_2184 (protein)
chain: SEEEREKAVEELLELAREEGEETEELARKLLEILGDDYERVKELLELVKEAKEEGVDLKEMFKEALELAEKLQKEGKSQEEIAEEVLETIRDHINLIPID
B3: LC3A_3_1840 (protein)
chain: LDEEVEAALAALRAAGHSEEALAAVRAAAEALRARGYDEALRTFVELMRRMLHLPSELVRALAEDVLRLVREEDLSEAELTARIRELARLYENEAEIEEL
B4: LC3A_28_1054 (protein)
chain: SKVDEEIKKALEEAKELAAKGEEALINITINEDDTEEDVEKKLETIKEIAEINKDLPATSIIVDVDNKNKEEVTKKFAELGDELEKKYPNVTVIIALSEE
B5: LC3A_28_1221 (protein)
chain: MKVEEQIEKAREQAEAARARGEEALIEVEIDESTTVEDARRIMEALEEIVAEAADLPAISIVVNVDEGVSQEVIDEIAERGERIEERFPNVTVIIALSEE
B6: LC3A_3_1368 (protein)
chain: MEEEIEKTLKKLKELGKSEETLEAIRRAAEALLEKGYEEALKTFLELMLELAHLPDELLLWMAEEVLAAVEAGELSEEELIEFIKREATVARNEAEIEEL
B7: LC3A_3_1639 (protein)
chain: MEEKIEERKKLLKEAGHSEEVIEAFEETAELLKEKGYYEALETLIEEMEKLKDLPDEILLAMLEEVKAVVKEPDKTEEEVIKAIKEIARVARNEGEIIEL
B8: LC3A_free_39_2255 (protein)
chain: SMEEIEKIRKELEKEAAKTSPEVREAVLALADLLKDDPELLKKLLELLKKAIEKGPEKVKDLGALAAEAVARIKAGEDPKEVAEEMIKLGENAVEIEEID
B9: LC3A_28_906 (protein)
chain: GAALAQLEAALAQVRAAVAAGDTSPLVLTITAPSDQENTDKFLEGLEKLAEEASKLPGVTIVIDIDESVSQENKDKIIDKAEELEEKYPNVTVIIALPES
B10: LC3A_3_1497 (protein)
chain: REELLEEMRKVLEERGASEEQIEEVLEAAERILEKGLEETVRTFIELVKENKDLSPEKILTAVLITRDYVEEENLDEESAIEKTKQILEDVKEIEEIEEE
B11: LC3A_free_39_2238 (protein)
chain: SKEEIEKLIKEIAEESGLEYEEVKKKIEEIQKVAGLTDEQILEIVKAILEAVKAGADGKEILEESLKIAKELKAEGKTPEEIKEAILEYIEDMRNLVPLD
B12: LC3A_28_867 (protein)
chain: MTIEERVAAARAQAEADAAEGEPIVITVEVTSEMSLEEAEELLRRVLDIARAFVAETGLPVHIVVDHDGDPEKLDAILDLADAAEAEDPRITVYVAISEE
B13: LC3A_13_348 (protein)
chain: TVTLTAETPEEALEKGTAALEANPGQTVNLTVTVRDEEEADKVAEVVKKLIDLAIEKGNALNVTLKGKRDLVLYAAVEIGSYIFEHLGQADVTVSTEEVE
B14: LC3A_28_1206 (protein)
chain: SATKKAAEAALKEAKAAAAAGEEKVIVLEVVGGVTEEETEYVIKKLEEIAKIAAENPKLSILIDISGGVAEEHQDKIIDKAEELEEKYPNVNIIIALEEE
B15: LC3A_3_1714 (protein)
chain: MEELLKEAREILEKQGRSEETIKAALEALKALLEKGYEEAAKTLIELLKEMKDLSDEILLNFFEDVKEYVETEDASEEETIKFIKEEARIARSEQEIEEL
B16: LC3A_3_1854 (protein)
chain: MEEIIEEALEHLRKLGRSEETIEAARELLEELAERGFEEAAKTFLEELKKLENVSDEDLLAMFEELLRALREEDLNEEEAIELIKSEARVLLNDLEIEEL
B17: LC3A_62_2045 (protein)
chain: MWRAVVEVDILAKDEEAAKKIAEEIKEMLEKLKKEDPRISFEVKLDLENKFVEVTVTYEAETKEEAEAAAEKILKALDELLEKNKDLIKASLISREFEKL
B18: LC3A_147_513 (protein)
chain: MYEVDVDILVKKEGKEKVLKELKEILEELKEEGYKVEVLEEKIEEEGDEVFIHIKVRIEAETEEEAKEAVNRFISKLEELEEKYKDLIKGTLISVEEIEP
B19: LC3A_28_1067 (protein)
chain: NALEAQLAAARAEARAAAAAGEEVVVTLTLDEDSTEADLEAVLATMRELAAIAAGSPALTIVVDVDNPNAEEWTTRIAEEGDRLEAENPNVTVLIALSEE
B20: LC3A_28_840 (protein)
chain: SKTEEANKEALAKAKEAAAAGKQEVIELKVYDASTQEAVDNTIKTLNEIAEILSSLPNQTILILFENPIPQEARDNIIDAAEEIEKKYPNVTVIIALPEE
B21: LC3A_17_594 (protein)
chain: MEEIKKKLEELLKEAEALIKKLAELRPEAAPEAKKKLKEAKKLLEEGKLKEAAKTLAELADYIADVFDELEEEGIEEAAPLEMEANGIEVEAELLLLKLD
B22: LC3A_28_1286 (protein)
chain: SEIEENLKKALEEAKKAVAEGKPAVITIKVPGNATEEEIEKVKEAMKEIAEILKDVKDQAIVIDVDGGVKEEHIDKLADAAEEIEKKYPNVTVIIALDEE
B23: LC3A_3_1796 (protein)
chain: MEEKLKELLEELREAGKSEETIEAARKTLNALIEKGYEKAFETLIEELRELKDIPDEILLDLLQEVLELIENEDLSEEELTEEIKELARLARLESEIEEL
B24: LC3A_free_46_2313 (protein)
chain: VVAEIEIDLLHKDEEVLKKAVEEIVKEIKEIAEKYGLELEIEIEFSKLEDGDYYARIKITLKGETLEDVQAAVNEIIEKIDEIAEKYDVSYIISVEIIEE
B25: LC3A_28_943 (protein)
chain: MSIEEDIEAALKEAKEAKKKGEPAVITITVKGTATQEEVDAVIKTIKEIAELLKDIKGSAIIVDIEAGVAQEHVDALMDTLDEIEKKYPNINAIAALDED
B26: LC3A_3_1727 (protein)
chain: MEERLARARERLRALGLSPEVFEAALATIEALLEKGLEEQAERLLEALERNRDADPERLLAWLEDIRRLLETDKSSKEELAKKVEEEIRAFENDAEIEEL
B27: LC3A_17_546 (protein)
chain: KEEIKKRLEELLKELEKLVEKLKPYDPEAAKKLKERLERARKLLEEGKLKEAAEELIEAAEELADAWEKLEPKLGTEASVQSMEANGIELEAIGLLLELE
B28: LC3A_28_1111 (protein)
chain: MDNRELNEKALKEAKEAAAKGEPAVITLHVTEEDTEEDIEEFIETLREIAELLKDVEGAAIIIDIDGKLPQEHLDKIADEAEEIEKEYPNITVIIALDEE
B29: LC3A_132_241 (protein)
chain: SEELYEKLKKEVDALLDALAANKDNLAAVKKLVAELEKLLEKAEKELSPEQVEELARDTADRLDALREEAEAAGKAEVASLLDNAAMYADGIAIEAELKL

This assay has as its target MAP1LC3A, Q9H492. As to the kind of experiment: median log2 fold change of GCK-ALFA target abundance (FLAG IP / Myc IP barcode read proportion) (log2 ratio); each designed protein is fused to an ALFA-tag nanobody in HEK293 cells to bring the named protein to FLAG-tagged glucokinase (GCK); Myc marks an untargeted standard; higher = target protein stabilised (more abundant). The note with it: target protein: 3xFLAG-MCP-GCK-ALFA reporter; HEK293 landing pad (RPLP). A digest of the protocol:
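An ALFA-nanobody-fused binder library was recombined into HEK293 landing-pad cells and induced with 2 μg mL^−1 doxycycline. Cells were transfected with a plasmid expressing a FLAG-tagged target and a Myc-tagged standard. After 48 h, lysates underwent anti-FLAG and anti-Myc immunoprecipitation, and circular RNA barcodes were reverse transcribed, amplified and sequenced. Target abundance is the per-binder median log2 ratio of FLAG to Myc barcode read proportions. Barcodes needed ≥10^−7 proportion in both replicates, binders ≥3 barcodes per replicate, and a 10^−6 pseudocount was added; the two replicates were pooled.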
As to B1, the “median log2 fold change” value stood at 0.238.

Consider B2, for which the “median log2 fold change” value worked out at 0.251.

On to B3, for which the “median log2 fold change” value is 0.299.

Regarding B4, the “median log2 fold change” value is -0.207.

For B5, the “median log2 fold change” value is 0.109.

On to B6, for which the “median log2 fold change” value worked out at 0.294.

Regarding B7, the “median log2 fold change” value was determined as 0.269.

As for B8, the “median log2 fold change” value is 0.265.

With B9, the “median log2 fold change” value was -0.0833.

Turning to B10, the “median log2 fold change” value is 0.197.

As to B11, the “median log2 fold change” value is 0.0312.

Consider B12, for which the “median log2 fold change” value was -0.153.

For B13, the “median log2 fold change” value is 0.223.

On to B14, for which the “median log2 fold change” value is -0.198.

On to B15, for which the “median log2 fold change” value was 0.151.

As to B16, the “median log2 fold change” value came to 0.154.

Turning to B17, the “median log2 fold change” value came out at 0.0247.

Regarding B18, the “median log2 fold change” value was -0.261.

B19: the “median log2 fold change” value is -0.0745.

Turning to B20, the “median log2 fold change” value was -0.00875.

As for B21, the “median log2 fold change” value turned out to be 0.0502.

Regarding B22, the “median log2 fold change” value was -0.187.

Regarding B23, the “median log2 fold change” value was -0.109.

Regarding B24, the “median log2 fold change” value is 0.141.

B25: the “median log2 fold change” value is -0.355.

With B26, the “median log2 fold change” value came out at 0.248.

Turning to B27, the “median log2 fold change” value came to 0.0598.

Take B28: the “median log2 fold change” value was -0.0813.

Turning to B29, the “median log2 fold change” value was 0.00601.
